Data: article PMC9911399, “Two distinct binding modes provide the RNA-binding protein RbFox with extraordinary sequence specificity”
Substitutions are numbered along the chain they refer to; changes in the protein carry UniProt numbers. Some of the results follow.

T1: RBFOX1 RRM (Homo sapiens, UniProt Q9NWB1 109-208)
T1 sequence: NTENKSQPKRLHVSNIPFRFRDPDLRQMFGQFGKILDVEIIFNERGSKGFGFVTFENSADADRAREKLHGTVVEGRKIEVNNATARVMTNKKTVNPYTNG

B1: AGAUCUA (DNA:RNA)
RNA: GGGAGACCGGAAUUCAGAUUGUCCAGAUCUAUUAAAUCCCGUCGUAGCCACCA
DNA 1: CAATCTGAATTCCGGTCTCCC
DNA 2: TGGTGGCTACGACGGGATT
B2: CUACACC (DNA:RNA)
RNA: B1 RNA with A25C, G26U, U28C, C29A, U30C, A31C
DNA 1: CAATCTGAATTCCGGTCTCCC
DNA 2: TGGTGGCTACGACGGGATT
B3: CAACGAC (DNA:RNA)
RNA: B1 RNA with A25C, G26A, U28C, C29G, U30A, A31C
DNA 1: CAATCTGAATTCCGGTCTCCC
DNA 2: TGGTGGCTACGACGGGATT
B4: AAUGGUA (DNA:RNA)
RNA: B1 RNA with G26A, A27U, U28G, C29G
DNA 1: CAATCTGAATTCCGGTCTCCC
DNA 2: TGGTGGCTACGACGGGATT
B5: CGGCCAG (DNA:RNA)
RNA: B1 RNA with A25C, A27G, U28C, U30A, A31G
DNA 1: CAATCTGAATTCCGGTCTCCC
DNA 2: TGGTGGCTACGACGGGATT
B6: CGUUUUG (DNA:RNA)
RNA: B1 RNA with A25C, A27U, C29U, A31G
DNA 1: CAATCTGAATTCCGGTCTCCC
DNA 2: TGGTGGCTACGACGGGATT
B7: ACUUAUA (DNA:RNA)
RNA: B1 RNA with G26C, A27U, C29A
DNA 1: CAATCTGAATTCCGGTCTCCC
DNA 2: TGGTGGCTACGACGGGATT
B8: AUCAGAG (DNA:RNA)
RNA: B1 RNA with G26U, A27C, U28A, C29G, U30A, A31G
DNA 1: CAATCTGAATTCCGGTCTCCC
DNA 2: TGGTGGCTACGACGGGATT
B9: GGACAAG (DNA:RNA)
RNA: B1 RNA with A25G, U28C, C29A, U30A, A31G
DNA 1: CAATCTGAATTCCGGTCTCCC
DNA 2: TGGTGGCTACGACGGGATT
B10: GCGGUAG (DNA:RNA)
RNA: GGGAGACCGGAAUUCAGAUUGUCCGCGGUAGUUAAAUCCCGUCGUAGCCACCA
DNA 1: CAATCTGAATTCCGGTCTCCC
DNA 2: TGGTGGCTACGACGGGATT
B11: GUAAUAA (DNA:RNA)
RNA: B10 RNA with C26U, G27A, G28A, G31A
DNA 1: CAATCTGAATTCCGGTCTCCC
DNA 2: TGGTGGCTACGACGGGATT
B12: UAUGCUC (DNA:RNA)
RNA: B1 RNA with A25U, G26A, A27U, U28G, A31C
DNA 1: CAATCTGAATTCCGGTCTCCC
DNA 2: TGGTGGCTACGACGGGATT
B13: AAUUUUC (DNA:RNA)
RNA: B1 RNA with G26A, A27U, C29U, A31C
DNA 1: CAATCTGAATTCCGGTCTCCC
DNA 2: TGGTGGCTACGACGGGATT
B14: CUACUAG (DNA:RNA)
RNA: B10 RNA with G25C, C26U, G27A, G28C
DNA 1: CAATCTGAATTCCGGTCTCCC
DNA 2: TGGTGGCTACGACGGGATT
B15: UCAAGAA (DNA:RNA)
RNA: B1 RNA with A25U, G26C, U28A, C29G, U30A
DNA 1: CAATCTGAATTCCGGTCTCCC
DNA 2: TGGTGGCTACGACGGGATT
B16: CCUCGGA (DNA:RNA)
RNA: B1 RNA with A25C, G26C, A27U, U28C, C29G, U30G
DNA 1: CAATCTGAATTCCGGTCTCCC
DNA 2: TGGTGGCTACGACGGGATT
B17: GACCAAU (DNA:RNA)
RNA: B10 RNA with C26A, G27C, G28C, U29A, G31U
DNA 1: CAATCTGAATTCCGGTCTCCC
DNA 2: TGGTGGCTACGACGGGATT
B18: ACUCUGA (DNA:RNA)
RNA: B1 RNA with G26C, A27U, U28C, C29U, U30G
DNA 1: CAATCTGAATTCCGGTCTCCC
DNA 2: TGGTGGCTACGACGGGATT
B19: CCGAAGG (DNA:RNA)
RNA: B10 RNA with G25C, G28A, U29A, A30G
DNA 1: CAATCTGAATTCCGGTCTCCC
DNA 2: TGGTGGCTACGACGGGATT
B20: UGGUUGG (DNA:RNA)
RNA: B10 RNA with G25U, C26G, G28U, A30G
DNA 1: CAATCTGAATTCCGGTCTCCC
DNA 2: TGGTGGCTACGACGGGATT
B21: GUAACCU (DNA:RNA)
RNA: B1 RNA with A25G, G26U, U28A, U30C, A31U
DNA 1: CAATCTGAATTCCGGTCTCCC
DNA 2: TGGTGGCTACGACGGGATT
B22: UCUCCUU (DNA:RNA)
RNA: B1 RNA with A25U, G26C, A27U, U28C, A31U
DNA 1: CAATCTGAATTCCGGTCTCCC
DNA 2: TGGTGGCTACGACGGGATT
B23: CUACGCG (DNA:RNA)
RNA: B1 RNA with A25C, G26U, U28C, C29G, U30C, A31G
DNA 1: CAATCTGAATTCCGGTCTCCC
DNA 2: TGGTGGCTACGACGGGATT
B24: CUUCUUU (DNA:RNA)
RNA: B1 RNA with A25C, G26U, A27U, U28C, C29U, A31U
DNA 1: CAATCTGAATTCCGGTCTCCC
DNA 2: TGGTGGCTACGACGGGATT
B25: GACCUAG (DNA:RNA)
RNA: B10 RNA with C26A, G27C, G28C
DNA 1: CAATCTGAATTCCGGTCTCCC
DNA 2: TGGTGGCTACGACGGGATT
B26: UAAGGGA (DNA:RNA)
RNA: B1 RNA with A25U, G26A, U28G, C29G, U30G
DNA 1: CAATCTGAATTCCGGTCTCCC
DNA 2: TGGTGGCTACGACGGGATT
B27: UCAGGGC (DNA:RNA)
RNA: B10 RNA with G25U, G27A, U29G, A30G, G31C
DNA 1: CAATCTGAATTCCGGTCTCCC
DNA 2: TGGTGGCTACGACGGGATT
B28: CUACGAC (DNA:RNA)
RNA: B1 RNA with A25C, G26U, U28C, C29G, U30A, A31C
DNA 1: CAATCTGAATTCCGGTCTCCC
DNA 2: TGGTGGCTACGACGGGATT
B29: GGAUCUC (DNA:RNA)
RNA: B1 RNA with A25G, A31C
DNA 1: CAATCTGAATTCCGGTCTCCC
DNA 2: TGGTGGCTACGACGGGATT
B30: AGCCCAC (DNA:RNA)
RNA: B1 RNA with A27C, U28C, U30A, A31C
DNA 1: CAATCTGAATTCCGGTCTCCC
DNA 2: TGGTGGCTACGACGGGATT
B31: AUUAAGA (DNA:RNA)
RNA: B1 RNA with G26U, A27U, U28A, C29A, U30G
DNA 1: CAATCTGAATTCCGGTCTCCC
DNA 2: TGGTGGCTACGACGGGATT

What follows are binders tested against T1, RBFOX1 RRM (assay: EMSA; HiTS-Eq, 1 nM pool, 10 min; buffer printed only for the single-RNA assays: 10 mM Tris pH 7.5, 150 mM NaCl, 3.4 mM EDTA, 0.001% NP-40, 30 C). Settings: tags: His6 N-terminal (pET28a); label: 5' 32P.
Summary of the method: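 These values rest on relative association constants, computed from read-count changes of each RNA species versus the control reaction and normalised to the cognate motif. Reads came from free RNA recovered by 8% native PAGE after purified RbFox RRM (wild type or mutant) at increasing concentrations was equilibrated for 10 min in 50 µL with 1 nM of a 5′-radiolabelled pool with 7 randomized nucleotides and DNA-annealed flanks.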
For B1, the binding signal was 0.00635 KA relative to UGCAUGU.
With B2 the binding signal was 0.000993 KA relative to UGCAUGU.
For B3, the binding signal was 0.00321 KA relative to UGCAUGU.
For B4, the binding signal was 0.0114 KA relative to UGCAUGU.
With B5 the binding signal was 0.0139 KA relative to UGCAUGU.
With B6 the binding signal was 0.0185 KA relative to UGCAUGU.
With B7 the binding signal was 0.00126 KA relative to UGCAUGU.
For B8, the binding signal was 0.00693 KA relative to UGCAUGU.
With B9 the binding signal was 0.0165 KA relative to UGCAUGU.
In the case of B10, the binding signal is reported as 0.016 KA relative to UGCAUGU.
B11 was tested, and the binding signal was 0.00176 KA relative to UGCAUGU.
In the case of B12, the binding signal is reported as 0.0158 KA relative to UGCAUGU.
With B13 the binding signal was 0.00788 KA relative to UGCAUGU.
B14 was tested, and the binding signal was 0.0104 KA relative to UGCAUGU.
In the case of B15, the binding signal is reported as 0.00503 KA relative to UGCAUGU.
For B16, the binding signal was 0.00996 KA relative to UGCAUGU.
For B17, the binding signal was 0.00483 KA relative to UGCAUGU.
In the case of B18, the binding signal is reported as 0.0132 KA relative to UGCAUGU.
B19 was tested, and the binding signal was 0.0158 KA relative to UGCAUGU.
With B20 the binding signal was 0.0294 KA relative to UGCAUGU.
B21 was tested, and the binding signal was 0.00401 KA relative to UGCAUGU.
For B22, the binding signal was 0.00711 KA relative to UGCAUGU.
For B23, the binding signal was 0.00824 KA relative to UGCAUGU.
In the case of B24, the binding signal is reported as 0.0106 KA relative to UGCAUGU.
In the case of B25, the binding signal is reported as 0.0112 KA relative to UGCAUGU.
B26 was tested, and the binding signal was 0.00419 KA relative to UGCAUGU.
In the case of B27, the binding signal is reported as 0.00678 KA relative to UGCAUGU.
B28 was tested, and the binding signal was 0.00574 KA relative to UGCAUGU.
For B29, the binding signal was 0.0209 KA relative to UGCAUGU.
For B30, the binding signal was 0.00162 KA relative to UGCAUGU.
B31 was tested, and the binding signal was 0.00517 KA relative to UGCAUGU.
